Measurements from the supplement of paper PMC3334620.
Whole data set: some 33,000 sequences, median “E-score (-0.5 to 0.5)” near -0.054, cut for the highest 2% near 0.35. This is one part of the list.

target: T1, Stb5 (UniProt P38699); assay: PBM E-score (8-mer binding enrichment) (E-score (-0.5 to 0.5)); higher = stronger / more preferred TF binding; most listed sequences are background and not binding sites; conditions: protein concentration: 200 nM; construct: GST-full length
T1 sequence: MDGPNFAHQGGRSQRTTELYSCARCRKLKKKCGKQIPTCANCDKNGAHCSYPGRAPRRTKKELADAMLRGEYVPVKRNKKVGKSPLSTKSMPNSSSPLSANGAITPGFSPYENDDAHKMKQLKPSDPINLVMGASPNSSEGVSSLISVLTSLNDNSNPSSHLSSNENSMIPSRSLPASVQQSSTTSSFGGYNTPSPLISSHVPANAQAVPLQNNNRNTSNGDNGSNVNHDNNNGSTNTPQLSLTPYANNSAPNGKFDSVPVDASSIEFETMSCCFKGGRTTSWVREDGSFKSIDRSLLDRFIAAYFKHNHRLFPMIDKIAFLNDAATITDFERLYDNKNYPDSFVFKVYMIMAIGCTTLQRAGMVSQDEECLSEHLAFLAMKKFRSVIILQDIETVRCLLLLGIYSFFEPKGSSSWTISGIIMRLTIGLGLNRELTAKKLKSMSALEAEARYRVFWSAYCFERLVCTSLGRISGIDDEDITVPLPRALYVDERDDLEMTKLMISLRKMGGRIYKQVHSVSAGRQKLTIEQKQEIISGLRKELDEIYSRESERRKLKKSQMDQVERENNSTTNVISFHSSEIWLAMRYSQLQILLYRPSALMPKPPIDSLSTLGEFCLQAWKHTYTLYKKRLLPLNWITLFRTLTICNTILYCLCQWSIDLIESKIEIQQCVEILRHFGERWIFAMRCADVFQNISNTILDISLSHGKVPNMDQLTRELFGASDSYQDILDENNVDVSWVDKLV
Outline: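 Yeast transcription factors carrying a GST tag, as full-length proteins or DNA-binding domains, were produced by PURExpress in vitro transcription/translation. About 100-200 nM protein was applied to universal all-10-mer Agilent arrays, double-stranded by primer extension on fresh or once-stripped slides. Bound protein was detected with fluorescent anti-GST, and scans were normalised with masliner. The Universal PBM Analysis Suite gave each ungapped eight-base word, pooled with its reverse complement, an E-score, a modified Wilcoxon-Mann-Whitney statistic.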

| Sequence | PBM E-score |
| --- | --- |
| ATGCAACA | -0.18 |
| CACAGTCG | -0.0701 |
| TATATCCA | 0.0192 |
| AACCAGGG | 0.00544 |
| AGAATTTG | -0.092 |
| GTGTCAAC | -0.0914 |
| AAAGCTGG | -0.215 |
| ACATGGCA | -0.179 |
| ACATTGTG | -0.145 |
| AAACACGG | -0.0253 |
| ACGCGAAG | -0.0662 |
| AGAGGGGG | -0.303 |
| ATTAATTA | -0.0684 |
| AGGAGTGA | -0.206 |
| AAACTACC | 0.0696 |
| CGTTTCGA | 0.00109 |
| ACGTGGCC | -0.337 |
| CAACCCGA | 0.0843 |
| AACCTTGT | -0.244 |
| CGCTAGCG | 0.0896 |
| CAGGGGTA | -0.188 |
| ACCGTCAT | 0.324 |
| ACCACTAG | -0.135 |
| CCTCGACG | -0.0423 |
| CGGCCCAG | 0.113 |

| Sequence | PBM E-score |
| --- | --- |
| TCTTCCCA | -0.247 |
| GCGACAGC | 0.105 |
| AAGATGCT | -0.136 |
| AAGAATGA | -0.184 |
| CCCGTCCG | 0.135 |
| ACTCCAGC | -0.283 |
| CCAATCCA | -0.0685 |
| GACTCCCC | -0.107 |
| GCGGCGTA | 0.316 |
| AACCCCAC | 0.0426 |
| AACCCCAT | 0.156 |
| CAAGCACG | -0.16 |
| GCAAACAA | -0.143 |
| AGTCAAAC | 0.0585 |
| GGCGTCCA | 0.063 |
| CAACGTTG | -0.0522 |
| AATTCGGA | 0.296 |
| CTCGTTAA | -0.0905 |
| ACGTTTAA | -0.129 |
| ATCTTTGC | -0.0121 |
| ACATAGGG | -0.112 |
| GCTTTACA | 0.0349 |
| GATAAACA | 0.0754 |
| CGGATCAG | -0.0313 |
| CAACATCG | 0.07 |

| Sequence | PBM E-score |
| --- | --- |
| ACGGGTAT | 0.256 |
| GGCAACTA | -0.101 |
| CCCAGAAG | 0.0619 |
| CAACCAGA | -0.147 |
| AGCCTTGG | -0.32 |
| AACTAGTA | -0.103 |
| AGAATACT | -0.0839 |
| AAGTGTCC | 0.188 |
| AACGAGTT | -0.109 |
| CAACTAAA | -0.0835 |
| ATGTATGA | -0.249 |
| GCACTCTA | -0.0909 |
| CCCATTGA | -0.0435 |
| GCCATCAC | -0.0842 |
| CGAGGCTA | -0.0771 |
| CAAGTAAC | -0.163 |
| AACGAAAC | -0.129 |
| GGGCCCTA | -0.0134 |
| GGCGTCAC | 0.106 |
| AAACTTTG | -0.186 |
| AACATCTC | -0.0257 |
| GTAACCTA | 0.0501 |
| GCTCCAAC | -0.0725 |
| ACGATCAG | -0.272 |
| TGAAAGCA | -0.173 |

| Sequence | PBM E-score |
| --- | --- |
| CTGAGCCA | -0.051 |
| CAGGCGCC | 0.105 |
| GCCATAAC | -0.157 |
| AAGCGCAC | 0.105 |
| CTTGATAC | -0.218 |
| GGACACCA | -0.0728 |
| GAGCACTC | -0.181 |
| ATGTTAAG | 0.113 |
| GGTCTGGA | -0.177 |
| ACGAGCTA | -0.188 |
| GAAATCCC | 0.254 |
| CCTAAAAC | 0.128 |
| CTTCCACA | -0.19 |
| AGGATTAC | -0.121 |
| ATCGCCAC | 0.101 |
| TACTCATA | -0.0803 |
| CGAATTAC | 0.0833 |
| GCCCGCTA | 0.233 |
| TGATGACA | -0.124 |
| TCCCGCGA | 0.264 |
| CGCCGTAG | 0.25 |
| CAAAACTC | 0.0797 |
| GGCGAACC | -0.0384 |
| ACTTATGC | 0.052 |
| GAGATATC | 0.0248 |

| Sequence | PBM E-score |
| --- | --- |
| CGATACAA | 0.0471 |
| AGAGAGCA | -0.0986 |
| ACCAATAC | 0.0152 |
| TTAACAAA | 0.0777 |
| GCGTCGCA | 0.0422 |
| CACAAATA | -0.0347 |
| CCGCGCGG | 0.404 |
| CGGGTCCA | 0.225 |
| AGGGTGCG | -0.0498 |
| ACAATACA | -0.0326 |
| GACGCCGA | 0.342 |
| GCCGGGAC | 0.241 |
| CCACCAGC | -0.125 |
| AGGAGCGG | 0.321 |
| AAGGCCAC | -0.145 |
| GGAGGTAC | 0.118 |
| ATGCCACA | -0.266 |
| CCCCATTC | -0.143 |
| CGAGTTCC | -0.123 |
| TAATCATA | -0.0379 |
| GAAACTGC | -0.0793 |
| ATAGGGCA | -0.138 |
| CCATACCG | 0.202 |
| AACAGCAT | -0.086 |
| GACCGTCA | 0.121 |

| Sequence | PBM E-score |
| --- | --- |
| GCATGACC | -0.103 |
| AGTACCTA | -0.0642 |
| TATGAATA | 0.0249 |
| GTAAACAC | 0.096 |
| AGTTAACA | 0.0184 |
| CACTTTCA | -0.105 |
| AGCCAACG | -0.209 |
| CAGAACAA | -0.0962 |
| CCTCGAGC | -0.115 |
| AGCGAACT | -0.271 |
| GACATATC | 0.0776 |
| CCAGGGCA | -0.111 |
| CCCAGGAG | -0.253 |
| ATAAGGTC | 0.0097 |
| AGTACTTA | -0.175 |
| ACGGGATA | 0.198 |
| GCAACTTA | -0.0671 |
| CCCTCGAA | -0.222 |
| CATAGCCG | 0.172 |
| ACCACTAC | -0.0721 |
| GTGCTAAA | 0.123 |
| TCGGAAAA | 0.133 |
| AATGACCA | -0.133 |
| CGTGCACA | -0.289 |
| AGTTCGAC | 0.023 |

| Sequence | PBM E-score |
| --- | --- |
| ATGCATTC | -0.203 |
| GCTCCGCA | 0.173 |
| CCAGTTCC | 0.0436 |
| TATAGCCA | -0.122 |
| CGGCGGCA | 0.411 |
| CGGCAGTC | 0.11 |
| ATCTCGCC | -0.0335 |
| TCCGGCCA | 0.23 |
| ATACGTTG | -0.107 |
| CGCATCAC | -0.0266 |
| CATGTCGA | -0.0944 |
| TAATTTGA | -0.0297 |
| TACTTATA | 0.0221 |
| AAAGATCT | -0.206 |
| AAACCTTT | 0.0851 |
| AACCGCTA | 0.0216 |
| CGTCAAAC | 0.084 |
| ATCAATAA | -0.0466 |
| AAGTCGAA | -0.228 |
| CGCTGCGC | 0.013 |
| TCAGTCCA | -0.216 |
| CTTTGAAA | -0.0707 |
